Laboratory results reported in PubChem BioAssay AID662 (National Center for Advancing Translational Sciences (NCATS), 2007).
Screen size: about 71,000 compounds; about 1,800 (2.5%) were called active. The inconclusive results got no clear call from the source; some entries with a clear call stand among them for comparison. Calls follow the shape of the dose curve; as a rule, active = well fitted activation curve with a large enough effect in the signal ratio, with a control signal flat (not every such curve was filed as active); inconclusive = small, poorly fitted or top-dose-only effect, or effect the other way, or a change in a side signal; inactive = flat fitted curve, though single readings scatter; the % refers to the signal ratio. Potencies of inconclusive entries are doubtful fits and often do not repeat.

Experiment: Cell signaling CRE-BLA (Fsk stim); as to activity change, negative = inhibition: % of control where 0% means no effect
Conditions: CHO CRE-bla reporter (cAMP response element driving beta-lactamase), forskolin EC10, beta-lactamase ratio; activity change, negative = inhibition: at 38.2 µM (top of the series) unless noted
How it was run: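 The 460nm/530nm emission ratio after CCF4 loading defined %Activity, from which AC50 values were obtained. CRE-bla CHO cells received compound dilution series together with an EC10 level of NKH 477 for 3 hours at 37 degrees Celsius.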
Potency is read from the fitted curve at half-maximal effect; tags tell the direction and shape of the fitted curve.

Row | Compound | Potency | activity change, negative = inhibition
1 | COc1ccc(NC(=O)CSc2nnc(-c3cccs3)n2C)cc1OC | inconclusive: 12.6 µM [rising, partial curve] | –
2 | CC(C)(C)n1nnnc1CN1CCC(NC(=O)NC2CCCCC2)CC1 | – | inconclusive: 3.99%
3 | CCCc1nc(N)c(C#N)c(-c2ccco2)c1CC | active: 7.94 µM | –
4 | O=C(NC1CCS(=O)(=O)C1)c1cccc(S(=O)(=O)N2CCCCC2)c1 (centres undefined) | inconclusive: 10 µM [rising, partial curve] | –
5 | COC(=O)c1cc(NCc2c(F)cccc2Cl)ccc1N1CCOCC1 | inconclusive: 25.1 µM [rising, single point] | –
6 | Cc1cc([C@](C)(N)C(=O)O)ccc1P(=O)(O)O | inactive | –
7 | Cc1noc(C)c1C(=O)N1CCC2(CCN(Cc3ccccc3)CC2)CC1 | inactive | –
8 | CCC(C)(C(=O)NC1CCCC1)N(C(=O)c1cnccn1)c1c(C)n(C)n(-c2ccccc2)c1=O (centres undefined) | – | inconclusive: 10.7%
9 | Cc1c2c(nc3c(C(=O)NC4CC4)cnn13)CCCC2 | active: 12.6 µM | –
10 | Cc1ccc(-n2c(CSc3nc(C)cc(C)n3)nnc2SCC(=O)N2CCCC2)cc1 | – | inconclusive: 17.1%
11 | OCCNc1nc(C2CC2)nc2c1nnn2Cc1ccccc1Cl | inconclusive: 12.6 µM [rising, partial curve] | –
12 | CC(N)=O | inactive | –
13 | Nc1ccccc1NC1=CC(=O)CC(c2ccco2)C1 (centres undefined) | inactive | –
14 | O=C1CCN2C=Nc3cccc4ccc1c2c34 | – | inconclusive: 17.7% [fluorescent]
15 | COc1ccc(CCNC(=O)CCN2C(=O)C(C)Oc3ccc(C)cc32)cc1OC (centres undefined) | – | inconclusive: 18.8%
16 | O=c1c(-c2cccs2)nc2cnc(N3CCNCC3)nc2n1Cc1cccs1 | inconclusive: 0.398 µM [rising, full curve] | –
17 | Cc1cc(NC(=O)c2cc3nc4c(c(C(F)(F)F)n3n2)CCc2ccccc2-4)no1 | inconclusive: 0.631 µM [rising, partial curve] | –
18 | CCCc1cc(=O)n2c(nc3ccccc32)[nH]1 | inconclusive: 10 µM [rising, single point] | –
19 | CCOCCCNC(=O)c1c[nH]c2ccc(S(=O)(=O)Nc3cccc(OC)c3)cc2c1=O | – | inconclusive: -11.4%
20 | FC(F)(F)c1cc(-c2ccco2)nc(-n2nnc3ccccc32)n1 | inactive | –
21 | CCn1cc(C(=O)N2CCCc3ccccc32)c2cc(OC)c(OC)cc2c1=O | inconclusive: 6.31 µM [rising, partial curve] | –
22 | CCC(C)OC(=O)C1=C(C)NC(=O)NC1c1ccc(F)cc1 (centres undefined) | – | inconclusive: 22%
23 | Cc1nc2cnc(Nc3ccccc3)nc2n(C2CC2)c1=O | inconclusive: 5.01 µM [rising, partial curve] | –
24 | CC(C)NC[C@H]1CCc2cc(CO)c([N+](=O)[O-])cc2N1 | inactive | –
25 | O=C1C2ON(c3ccc(Cl)cc3)C(c3ccco3)C2C(=O)N1c1ccccc1 (centres undefined) | inconclusive: 25.1 µM [falling, single point] | –
26 | CCOc1ccc(CCNS(=O)(=O)c2cnc[nH]2)cc1OCC | inconclusive: 10 µM [rising, partial curve] | –
27 | Cc1nn(-c2ccc(F)cc2)c2sc(C(=O)N3CCCCCC3)cc12 | active: 1 µM | –

Row | Compound | Potency | activity change, negative = inhibition
28 | CC(C)(Oc1ccc(Cl)cc1)C(=O)N1CCN(c2ccccn2)CC1 | inactive | –
29 | COCCNC(=O)c1nn(-c2cc(OC)cc(OC)c2)c(=O)c2ccccc12 | inconclusive: 10 µM [rising, single point] | –
30 | CN(C(=O)c1cnccn1)c1nnc(-c2cccnc2)s1 | – | inconclusive: -6.19%
31 | COc1ccc(OC)c(CN2C(=O)CCC2(C)C(=O)NC2CCCCCC2)c1 (centres undefined) | inconclusive: 5.01 µM [rising, single point] | –
32 | CC(=O)C(C)Oc1cc(C)cc2oc(=O)c(C)c(C)c12 (centres undefined) | inactive | –
33 | Cc1nc(N)nc2ccccc12 | – | inactive: 17.1% [at 7.6 µM]
34 | CC1Cc2ccccc2N1c1ncnc2c1nnn2Cc1ccccc1 (centres undefined) | inconclusive: 3.98 µM [rising, single point] | –
35 | CCOC(=O)c1cnn2c(C(F)(F)F)cc(-c3cn(C)nc3C)nc12 | inconclusive: 10 µM [rising, partial curve] | –
36 | COc1ccc(-n2c(Cc3cccn3C)nnc2SCC(=O)Nc2ccc3c(c2)OCO3)cc1 | – | inconclusive: -11.3%
37 | CN1CCN(c2ncc3nc(-c4ccccc4)c(=O)n(C)c3n2)CC1 | inconclusive: 10 µM [rising, partial curve] | –
38 | CS(=O)(=O)Nc1ccc(OCc2ccccc2)cc1 | – | inconclusive: 7.93% [at 7.6 µM]
39 | CCOC(=O)C1CCN(c2c(NCc3ccc(C(=O)NC(C)CC)cc3)c(=O)c2=O)CC1 (centres undefined) | – | inconclusive: 3.48%
40 | CCOC(=O)Nc1ccc2c(c1)N(C(=O)CCN(C)C)c1ccccc1S2 | – | inconclusive: -29.7%
41 | CC(C)(C)n1ncc2c(=O)n(CC(=O)Nc3ccc4c(c3)OCO4)cnc21 | – | inconclusive: 17.6%
42 | COc1ccc(S(=O)(=O)NCCSC(C)(C)C)cc1Cl | inconclusive: 10 µM [rising, single point] | –
43 | CC(C)C[C@H](N)CSSC[C@@H](N)CC(C)C | inactive | –
44 | COCCCNC(=O)C(F)(F)C(F)(F)C(=O)NCCCOC | inconclusive: 1 µM [rising, partial curve] | –
45 | Cc1nn(-c2ccccc2)c(-c2ccccc2)c1C(=O)O | inconclusive: 0.0631 µM [rising, single point] | –
46 | CCOc1ccc(OCC)c(NC(=O)C2CCN(S(=O)(=O)c3cnc[nH]3)CC2)c1 | – | inconclusive: 6.59%
47 | O=C(NCCCN1CCCC1)c1cccc(N2CCCC2=O)c1 | inconclusive: 1.26 µM [falling, partial curve] | –
48 | CCN(CC)S(=O)(=O)c1ccc2c(c1)nc(CCC(=O)OCc1c(C)noc1C)n2C | inconclusive: 3.16 µM [rising, single point] | –
49 | COc1ccc2[nH]cc(CCNc3ncncc3-c3ccccc3Cl)c2c1 | inactive | –
50 | C=CCSc1nc2ccccc2n1Cc1nnc(-c2cccs2)o1 | – | inconclusive: 10.9%
51 | O=C(CSc1ccc2nnc(-c3ccncc3)n2n1)Nc1ccc2c(c1)OCCO2 | inconclusive: 7.94 µM [rising, partial curve] | –
52 | Cc1onc(-c2ccccc2)c1C(=O)N1CCCN(C(=O)c2c(-c3ccccc3)noc2C)CC1 | inactive | –
53 | COc1ccccc1-c1cc(C(=O)Nc2ccc(F)cc2F)no1 | inactive | –
54 | CCCn1c(=O)[nH]c(=O)c2c1nc(-c1ccccc1OC(F)F)n2CCOC | – | inconclusive: 25.7%

Row | Compound | Potency | activity change, negative = inhibition
55 | CCOc1ccccc1N1CCN(C(=O)c2cccc(-c3ccc(O)cc3)c2)CC1 | – | inconclusive: -19%
56 | Cc1cc(C)nc(NC(=O)c2c(-c3c(Cl)cccc3Cl)noc2C)n1 | – | inconclusive: 4.05%
57 | CCn1c2ccccc2c2cc(/C=N/n3cnnc3)ccc21 | inconclusive: 12.6 µM [rising, partial curve] | –
58 | CC1CC(C)CN(CCC(=O)Nc2cccc(Cl)c2)C1 (centres undefined) | inactive | –
59 | CN1CCc2c(cc(O)c(O)c2Cl)[C@H](c2cccc(Cl)c2)C1 | inactive | –
60 | CC[C@@H](C)[C@H](NC(=O)OC(C)(C)C)c1nnc(S(=O)(=O)Cc2cc(C)ccc2C)o1 | – | inconclusive: 11.9%
61 | COc1ccc(C(=O)CSc2nnc(-c3cnccn3)n2Cc2ccco2)cc1 | inconclusive: 10 µM [rising, single point] | –
62 | CCOC(=O)c1ccccc1NC(=O)c1ccc2c(=O)n3c(nc2c1)CCCCC3 | inconclusive: 1.58 µM [rising, partial curve] | –
63 | O=C(CSc1nccc2ccccc12)N1CCN(c2ccccn2)CC1 | inactive | –
64 | CC1Cc2ccccc2N1C(=O)COc1cccc(-n2cnnn2)c1 (centres undefined) | – | inconclusive: 24.7%
65 | O=S1(=O)CCC(SCc2nc3sccn3c2Br)C1 (centres undefined) | inconclusive: 5.01 µM [falling, single point] | –
66 | C(=N\c1nccs1)/c1c[nH]c2ccccc12 | – | inconclusive: -14.9% [at 7.6 µM]
67 | COc1ccc(CCC(=O)NCc2ccco2)cc1 | inactive | –
68 | Cc1ccc(OC[C@H](O)[C@H](C)NC(C)C)c2c1CCC2 | – | inconclusive: -24.6%
69 | N#CCCn1c(=O)c(-c2ccc(F)cc2)nc2cnc(OCc3ccccc3)nc21 | inconclusive: 20 µM [rising, single point] | –
70 | CC1(C)C(=O)C(c2ccccc2)=C2CN3C(=O)N(CCc4ccccc4)C(=O)C3(Cc3ccccc3)C=C21 (centres undefined) | inactive | –
71 | COc1cccc(Nc2ncc3nc(-c4ccc(F)cc4)c(=O)n(CCC#N)c3n2)c1 | – | inconclusive: -0.119% [fluorescent]
72 | O=C(Nc1ccccc1)C1CC2CCCC(C1)C2=O (centres undefined) | inactive | –
73 | COc1ccc(-c2nc3cnc(N4CCOCC4)nc3n(CCC#N)c2=O)cc1 | inconclusive: 2.51 µM [rising, partial curve] | –
74 | CCOc1ccccc1OCC(=O)Nc1ccc(S(=O)(=O)Nc2nc(C)cc(C)n2)cc1 | inconclusive: 20 µM [rising, single point] | –
75 | CCOc1ccc2[nH]c(=O)c(CN(Cc3ccco3)C(=O)c3ccc(Br)cc3)cc2c1 | inactive | –
76 | COc1ccc(-c2nc3cnc(N(C)C)nc3n(CCc3ccccc3)c2=O)cc1 | inconclusive: 0.398 µM [rising, full curve] | –
77 | COc1cccc(C2=CC(c3cc(OC)ccc3OC)n3nnnc3N2)c1 (centres undefined) | inconclusive: 12.6 µM [rising, partial curve] | –
78 | Cc1nn2c3cc(N4CCOCC4)ccc3nc2c2ccccc12 | inconclusive: 1.26 µM [rising, partial curve] | –
79 | CC(=O)Oc1ccc(N2C(=O)C3C(C2=O)C2(C)C=CC3(C)O2)cc1 (centres undefined) | inconclusive: 25.1 µM [rising, single point] | –
